# Laboratory results: the supplement of paper PMC8728848
# The list shows a part of the results.
# B1: Cohesin-hDC-ASGPR (Homo sapiens) (protein)
# chain: LDDLDAVRIKVDTVNAKPGDTVRIPVRFSGIPSKGIANCDFVYSYDPNVLEIIEIEPGDIIVDPNPDKSFDTAVYPDRKIIVFLFAEDSGTGAYAITKDGVFATIVAKVKEGAPNGLSVIKFVEVGGFANNDLVEQKTQFFDGGANVGDTTEPATPTTPVTTPTTTDDLDAASQNSKFQRDLVTLRTDFSNFTSNTVAEIQALTSQGSSLEETIASLKAEVEGFKQERQAGVSELQEHTTQKAHLGHCPHCPSVCVPVHSEMLLRVQQLVQDLKKLTCQVATLNNNASTEGTCCPVNWVEHQDSCYWFSHSGMSWAEAEKYCQLKNAHLVVINSREEQNFVQKYLGSAYTWMGLSDPEGAWKWVDGTDYATGFQNWKPGQPDDWQGHGLGGGEDCAHFHPDGRWNDDVCQRPYHWVCEAGLGQTSQESHHHHHH
# What was measured:
# Assay in all cases: glycan array binding signal (z-score within array); higher = stronger binding
# Details in all cases: glycan notation: IUPAC condensed, linker removed
# [1] = biological target: Fuc(a1-2)[Gal(a1-3)]Gal(b1-4)GlcNAc(b1-2)Man(a1-3)[Fuc(a1-2)[Gal(a1-3)]Gal(b1-4)GlcNAc(b1-2)Man(a1-6)]Man(b1-4)GlcNAc(b1-4)[Fuc(a1-6)]GlcNAc
# Outline: (§1)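 From the Consortium for Functional Glycomics database, 3228 arrays were curated, keeping only those whose protein sequence was available. Binding is given as a within-array Z-score averaged across arrays sharing a protein sequence and across linkers. Negative Z-scores can be read as non-binding.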
# [2] = biological target: Fuc(a1-2)[Gal(a1-3)]Gal(b1-4)GlcNAc(b1-3)GalNAc
# Outline: as §1
# [3] = biological target: Fuc(a1-2)[Gal(a1-3)]Gal(b1-4)GlcNAc(b1-3)[Fuc(a1-2)[Gal(a1-3)]Gal(b1-4)GlcNAc(b1-6)]GalNAc
# Outline: as §1
# [4] = biological target: Fuc(a1-2)[Gal(a1-3)]Gal(b1-4)GlcNAc(b1-6)GalNAc
# Outline: as §1
# [5] = biological target: Fuc(a1-2)[Gal(a1-3)]Gal(b1-4)[Fuc(a1-3)]Glc
# Outline: as §1
# [6] = biological target: Fuc(a1-2)[Gal(a1-3)]Gal(b1-4)[Fuc(a1-3)]GlcNAc
# Outline: as §1
# [7] = biological target: Fuc(a1-2)[Gal(a1-3)]Gal(b1-4)[Fuc(a1-3)]GlcNAc(b1-3)GalNAc
# Outline: as §1
# [8] = biological target: Fuc(a1-2)[Gal(a1-4)]Gal(b1-4)GlcNAc
# Outline: as §1
# [9] = biological target: Fuc(a1-2)[GalNAc(a1-3)]Gal
# Outline: as §1
# [10] = biological target: Fuc(a1-2)[GalNAc(a1-3)]Gal(b1-3)GalNAc(a1-3)[Fuc(a1-2)]Gal(b1-4)GlcNAc
# Outline: as §1
# [11] = biological target: Fuc(a1-2)[GalNAc(a1-3)]Gal(b1-3)GalNAc(b1-3)Gal(a1-4)Gal(b1-4)Glc
# Outline: as §1
# [12] = biological target: Fuc(a1-2)[GalNAc(a1-3)]Gal(b1-3)GlcNAc
# Outline: as §1
# [13] = biological target: Fuc(a1-2)[GalNAc(a1-3)]Gal(b1-3)GlcNAc(b1-2)Man(a1-3)[Fuc(a1-2)[GalNAc(a1-3)]Gal(b1-3)GlcNAc(b1-2)Man(a1-6)]Man(b1-4)GlcNAc(b1-4)GlcNAc
# Outline: as §1
# [14] = biological target: Fuc(a1-2)[GalNAc(a1-3)]Gal(b1-3)GlcNAc(b1-2)Man(a1-3)[Fuc(a1-2)[GalNAc(a1-3)]Gal(b1-3)GlcNAc(b1-2)Man(a1-6)]Man(b1-4)GlcNAc(b1-4)[Fuc(a1-6)]GlcNAc
# Outline: as §1
# [15] = biological target: Fuc(a1-2)[GalNAc(a1-3)]Gal(b1-3)GlcNAc(b1-3)GalNAc
# Outline: as §1
# [16] = biological target: Fuc(a1-2)[GalNAc(a1-3)]Gal(b1-3)GlcNAc(b1-6)GalNAc
# Outline: as §1
# [17] = biological target: Fuc(a1-2)[GalNAc(a1-3)]Gal(b1-4)Glc
# Outline: as §1
# [18] = biological target: Fuc(a1-2)[GalNAc(a1-3)]Gal(b1-4)GlcNAc
# Outline: as §1
# [19] = biological target: Fuc(a1-2)[GalNAc(a1-3)]Gal(b1-4)GlcNAc(b1-2)Man
# Outline: as §1
# [20] = biological target: Fuc(a1-2)[GalNAc(a1-3)]Gal(b1-4)GlcNAc(b1-2)Man(a1-3)[Fuc(a1-2)[GalNAc(a1-3)]Gal(b1-4)GlcNAc(b1-2)Man(a1-6)]Man(b1-4)GlcNAc(b1-4)GlcNAc
# Outline: as §1
# [21] = biological target: Fuc(a1-2)[GalNAc(a1-3)]Gal(b1-4)GlcNAc(b1-2)Man(a1-3)[Fuc(a1-2)[GalNAc(a1-3)]Gal(b1-4)GlcNAc(b1-2)Man(a1-6)]Man(b1-4)GlcNAc(b1-4)[Fuc(a1-6)]GlcNAc
# Outline: as §1
# [22] = biological target: Fuc(a1-2)[GalNAc(a1-3)]Gal(b1-4)GlcNAc(b1-3)Gal(b1-4)GlcNAc
# Outline: as §1
# [23] = biological target: Fuc(a1-2)[GalNAc(a1-3)]Gal(b1-4)GlcNAc(b1-3)Gal(b1-4)GlcNAc(b1-3)Gal(b1-4)GlcNAc
# Outline: as §1
# [24] = biological target: Fuc(a1-2)[GalNAc(a1-3)]Gal(b1-4)GlcNAc(b1-3)GalNAc
# Outline: as §1
# [25] = biological target: Fuc(a1-2)[GalNAc(a1-3)]Gal(b1-4)GlcNAc(b1-3)[Fuc(a1-2)[GalNAc(a1-3)]Gal(b1-4)GlcNAc(b1-6)]GalNAc
# Outline: as §1
# [26] = biological target: Fuc(a1-2)[GalNAc(a1-3)]Gal(b1-4)GlcNAc(b1-6)GalNAc
# Outline: as §1
# [27] = biological target: Fuc(a1-2)[GalNAc(a1-3)]Gal(b1-4)[Fuc(a1-3)]GlcNAc
# Outline: as §1
# [28] = biological target: Fuc(a1-2)[GalNAc(a1-3)]Gal(b1-4)[Fuc(a1-3)]GlcNAc(b1-3)GalNAc
# Outline: as §1
# [29] = biological target: Fuc(a1-2)[GalNAc(a1-4)]Gal(b1-4)GlcNAc
# Outline: as §1
# [30] = biological target: Fuc(a1-2)[GalNAc(b1-3)]Gal
# Outline: as §1
# Fuc(a1-3)GlcNAc = biological target: Fuc(a1-3)GlcNAc
# Outline: as §1
# [31] = biological target: Fuc(a1-3)[Gal(b1-4)]Glc6S
# Outline: as §1
# [32] = biological target: Fuc(a1-3)[Gal(b1-4)]GlcNAc
# Outline: as §1
# [33] = biological target: Fuc(a1-3)[Gal(b1-4)]GlcNAc(b1-2)Man
# Outline: as §1
# [34] = biological target: Fuc(a1-3)[Gal(b1-4)]GlcNAc(b1-2)Man(a1-3)[Fuc(a1-3)[Gal(b1-4)]GlcNAc(b1-2)Man(a1-6)]Man(b1-4)GlcNAc(b1-4)GlcNAc
# Outline: as §1
# [35] = biological target: Fuc(a1-3)[Gal(b1-4)]GlcNAc(b1-2)Man(a1-3)[Fuc(a1-3)[Gal(b1-4)]GlcNAc(b1-2)Man(a1-6)]Man(b1-4)GlcNAc(b1-4)[Fuc(a1-6)]GlcNAc
# Outline: as §1
# [36] = biological target: Fuc(a1-3)[Gal(b1-4)]GlcNAc(b1-3)Gal(b1-3)[Fuc(a1-4)]GlcNAc
# Outline: as §1
binder,measurement,setting,value
B1,glycan array binding signal (z-score),[1],-0.281
same,glycan array binding signal (z-score),[2],-0.507
same,glycan array binding signal (z-score),[3],-0.356
same,glycan array binding signal (z-score),[4],-0.493
same,glycan array binding signal (z-score),[5],-0.481
same,glycan array binding signal (z-score),[6],-0.392
same,glycan array binding signal (z-score),[7],-0.481
same,glycan array binding signal (z-score),[8],-0.495
same,glycan array binding signal (z-score),[9],2.81
same,glycan array binding signal (z-score),[10],3.55
same,glycan array binding signal (z-score),[11],1.97
same,glycan array binding signal (z-score),[12],2.5
same,glycan array binding signal (z-score),[13],2.83
same,glycan array binding signal (z-score),[14],1.89
same,glycan array binding signal (z-score),[15],0.375
same,glycan array binding signal (z-score),[16],2.41
same,glycan array binding signal (z-score),[17],2.4
same,glycan array binding signal (z-score),[18],2.16
same,glycan array binding signal (z-score),[19],2.03
same,glycan array binding signal (z-score),[20],2.39
same,glycan array binding signal (z-score),[21],1.92
same,glycan array binding signal (z-score),[22],2.14
same,glycan array binding signal (z-score),[23],1.93
same,glycan array binding signal (z-score),[24],0.315
same,glycan array binding signal (z-score),[25],2.2
same,glycan array binding signal (z-score),[26],2.58
same,glycan array binding signal (z-score),[27],2.71
same,glycan array binding signal (z-score),[28],-0.402
same,glycan array binding signal (z-score),[29],3.15
same,glycan array binding signal (z-score),[30],2.42
same,glycan array binding signal (z-score),Fuc(a1-3)GlcNAc,-0.367
same,glycan array binding signal (z-score),[31],-0.425
same,glycan array binding signal (z-score),[32],-0.143
same,glycan array binding signal (z-score),[33],-0.444
same,glycan array binding signal (z-score),[34],-0.454
same,glycan array binding signal (z-score),[35],-0.501
same,glycan array binding signal (z-score),[36],-0.491
